In all, about 33,000 sequences were measured (“E-score (-0.5 to 0.5)”: median about -0.04, highest 2% from about 0.36 on). The list shows a part of the results.
Biological target: T1, Hmlalpha2 (UniProt P0CY09)
T1 sequence: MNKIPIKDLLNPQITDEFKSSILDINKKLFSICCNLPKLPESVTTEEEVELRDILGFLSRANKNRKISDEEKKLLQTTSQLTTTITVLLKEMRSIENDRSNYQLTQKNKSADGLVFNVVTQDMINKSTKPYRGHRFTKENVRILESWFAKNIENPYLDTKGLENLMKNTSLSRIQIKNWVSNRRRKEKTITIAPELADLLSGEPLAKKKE
Assay: PBM E-score (8-mer binding enrichment) (E-score (-0.5 to 0.5)); higher = stronger / more preferred TF binding; most listed sequences are background and not binding sites
Conditions: protein concentration: 200 nM; construct: GST-full length
In short: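 Bound GST-tagged yeast transcription factors, applied at about 100-200 nM to double-stranded universal all-10-mer Agilent arrays, were detected with fluorescent anti-GST. Scans were normalised with masliner. A modified Wilcoxon-Mann-Whitney statistic, the E-score, was assigned to each ungapped eight-base word pooled with its reverse complement by the Universal PBM Analysis Suite.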

Row | Sequence | PBM E-score
1 | TCTACAGA | 0.133
2 | ACCTCGGA | -0.155
3 | AAGCGAGA | -0.275
4 | GCGGCACA | -0.306
5 | GACCCGGC | -0.255
6 | CAAATGAC | -0.00664
7 | GCGTAGTA | 0.212
8 | AATAGCAC | -0.17
9 | GTCATCAA | 0.119
10 | GCCAGGCC | -0.231
11 | AACTCAAC | 0.233
12 | ATGGGATG | -0.154
13 | ACCTAAGG | -0.199
14 | ATTTTCGC | 0.0184
15 | CTGGCACA | -0.106
16 | AAGACCGT | -0.0822
17 | CTTATGGC | -0.298
18 | GTCCAACA | 0.179
19 | GCGCCTCC | -0.215
20 | TAACTCCA | -0.137
21 | CTAGCCGA | -0.261
22 | CTCGCTGC | -0.0388
23 | AGTCCCGA | -0.108
24 | CACTTGTC | -0.226
25 | GGGCTTTA | -0.142

Row | Sequence | PBM E-score
26 | ACGCTGAA | -0.0254
27 | AGCATCAA | 0.0657
28 | ACGTCCGG | -0.137
29 | AGTTAGGC | -0.104
30 | AACGTCAT | 0.0264
31 | CCTCATTC | -0.136
32 | TAGACCGA | -0.0145
33 | ATGCGTCA | 0.0451
34 | GCCTAATA | -0.0812
35 | ATCGTATG | 0.155
36 | CTATAAAA | 0.0964
37 | CCAACGAA | -0.092
38 | CTGAACCC | -0.137
39 | GCGACAAC | 0.123
40 | AAGTAACC | 0.0188
41 | GAAGTTCC | -0.324
42 | GAATTCTA | 0.13
43 | GTACTCCA | -0.138
44 | ATGTTGTC | 0.364
45 | CGAACCCC | -0.333
46 | AGGTGCGC | -0.174
47 | CCACAAGA | -0.182
48 | CACGACAC | 0.167
49 | CCGGCGGC | -0.322
50 | AGACACAC | -0.031

Row | Sequence | PBM E-score
51 | GGATAAAA | -0.0722
52 | ATAGCATG | 0.171
53 | AGTGGACA | -0.093
54 | AGTTCAGG | -0.0941
55 | CGGGATAA | 0.221
56 | CACCTCCG | -0.121
57 | CGAATTTC | -0.0877
58 | CACTAGAA | -0.0526
59 | CCTTTGGC | -0.0752
60 | ATCTAGCG | -0.103
61 | AGGGGCAC | -0.238
62 | GTCCGAAC | -0.192
63 | CGGATTAA | -0.0582
64 | CGCGTATA | 0.372
65 | CCGTGGAC | -0.17
66 | CACAAACG | 0.241
67 | GCAACTAC | 0.0807
68 | CGAGGAGC | -0.107
69 | CACGGGCC | -0.0755
70 | TAGAACAA | 0.165
71 | CTCTATGC | -0.117
72 | GTTACCGA | 0.00752
73 | GCTAGCCA | -0.251
74 | CACGACTA | 0.0588
75 | AACAACTA | 0.162

Row | Sequence | PBM E-score
76 | TCCAGCGA | -0.131
77 | CACCGTAG | -0.0717
78 | ACTCCTAT | -0.0573
79 | CGGGTACA | 0.0539
80 | CGCCCGCG | -0.114
81 | CGTTGGTC | -0.102
82 | CCTTTCGC | -0.175
83 | CTACTCTC | -0.182
84 | GGCCTATA | -0.278
85 | CCATCGCA | -0.184
86 | AGTGCGGC | -0.177
87 | AATTTTAG | -0.0104
88 | ATACGCTC | 0.213
89 | ACCTTCAA | 0.143
90 | ACGAGCAC | -0.0142
91 | CAAGTCGC | -0.243
92 | CCATCTCA | -0.243
93 | AGAAATTG | -0.132
94 | GTATCATA | 0.246
95 | CGGTGAAG | -0.253
96 | ACGTCAGA | 0.0938
97 | CTGGACTC | -0.0558
98 | AAGCCTTC | -0.104
99 | GCCAAGCA | -0.147
100 | ATAGCCCC | -0.178

Row | Sequence | PBM E-score
101 | CCATCAAA | -0.163
102 | CAGATCAA | 0.0317
103 | CTAATACA | 0.342
104 | GCACACGC | 0.0292
105 | AAATAACA | 0.316
106 | CCAGAAGC | -0.302
107 | GATACGGC | -0.173
108 | TAATCTAA | 0.162
109 | AGTGGGAT | -0.0546
110 | CCTTCCCA | -0.15
111 | AAGACCCA | -0.253
112 | CATTAGAC | -0.164
113 | GAGGGGTA | -0.281
114 | GCTCATGA | -0.053
115 | AGAGCGAA | -0.102
116 | AGCGAGTA | 0.158
117 | ACTGGCAC | -0.251
118 | GATCTCAA | 0.0566
119 | CTGAGACC | -0.106
120 | GGATGGCC | -0.217
121 | AGTGCCAA | -0.0269
122 | GGGTTTAC | 0.211
123 | TATAAATA | 0.179
124 | ATACGCCG | 0.0255
125 | ATACCTAA | 0.119

Row | Sequence | PBM E-score
126 | AAAGCACA | 0.123
127 | AACCTGCA | -0.145
128 | AACGGGCG | -0.168
129 | AATACATA | 0.444
130 | GGTTACAA | 0.294
131 | AAACTAGC | -0.112
132 | GGATAAAC | 0.198
133 | CCCCGTGA | -0.253
134 | CGCAGGTC | -0.122
135 | GAGAATAA | 0.0756
136 | AAGAAATC | -0.0354
137 | AGTTCGAT | 0.0721
138 | AATGGGGG | -0.322
139 | AACTCCGT | 0.0205
140 | AAGAAAGC | -0.142
141 | ACAGCCAT | 0.162
142 | CAACCGAA | -0.0155
143 | ACAACACA | 0.405
144 | ACGGTAAG | -0.0885
145 | GCGGGTAC | -0.0244
146 | AGAATGGC | -0.0602
147 | AGGCAACT | 0.162
148 | TATCCTCA | -0.113
149 | AAGGGACC | -0.279
150 | AACGAAAT | 0.101

Row | Sequence | PBM E-score
151 | CCTCATAG | -0.186
152 | AACTGTAT | 0.134
153 | CCAGGAAG | -0.0163
154 | GCTAGTAC | 0.0705
155 | TCATCGCA | 0.104
156 | AGCACGTG | 0.239
157 | AGGGAGTG | -0.23
158 | AATAGTGA | 0.0551
159 | AGAGGCAG | -0.307
160 | ACTAGCCC | -0.0194
161 | AATGCGTC | -0.0373
162 | CGGCTACC | -0.0726
163 | AGAGCCTC | -0.407
164 | CTGGCTCC | -0.238
165 | CAGAGATA | 0.0233
166 | CAGAGTAA | 0.0512
167 | ACGGGAAG | -0.0832
168 | GTTCCTTA | -0.0384
169 | TGTCTTAA | 0.217
170 | ATCACTAC | 0.0341
171 | AGTTCGGA | -0.0234
172 | ATTTGCAA | 0.158
